# From publication PMC6919601, “Identification of Plasmodium dipeptidyl aminopeptidase allosteric inhibitors by high throughput screening” (PLoS ONE, 2019)
# About 230 (0.21%) of roughly 110,000 compounds showed an effect of 50% or more. The list shows a part of the results.
# Target: DPAP1 (Plasmodium falciparum, UniProt Q8IIJ9)
# Test: primary screen, percent inhibition; read by cleavage of a fluorogenic dipeptide substrate; higher = more effect of the substance
# Design: species or system P. falciparum D10 trophozoite lysates; single well
# 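Note: 30 min substrate incubation versus DMSO and 10 µM JCP410 controls.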
# Sequence of DPAP1 (Q8IIJ9 whole entry, looked up): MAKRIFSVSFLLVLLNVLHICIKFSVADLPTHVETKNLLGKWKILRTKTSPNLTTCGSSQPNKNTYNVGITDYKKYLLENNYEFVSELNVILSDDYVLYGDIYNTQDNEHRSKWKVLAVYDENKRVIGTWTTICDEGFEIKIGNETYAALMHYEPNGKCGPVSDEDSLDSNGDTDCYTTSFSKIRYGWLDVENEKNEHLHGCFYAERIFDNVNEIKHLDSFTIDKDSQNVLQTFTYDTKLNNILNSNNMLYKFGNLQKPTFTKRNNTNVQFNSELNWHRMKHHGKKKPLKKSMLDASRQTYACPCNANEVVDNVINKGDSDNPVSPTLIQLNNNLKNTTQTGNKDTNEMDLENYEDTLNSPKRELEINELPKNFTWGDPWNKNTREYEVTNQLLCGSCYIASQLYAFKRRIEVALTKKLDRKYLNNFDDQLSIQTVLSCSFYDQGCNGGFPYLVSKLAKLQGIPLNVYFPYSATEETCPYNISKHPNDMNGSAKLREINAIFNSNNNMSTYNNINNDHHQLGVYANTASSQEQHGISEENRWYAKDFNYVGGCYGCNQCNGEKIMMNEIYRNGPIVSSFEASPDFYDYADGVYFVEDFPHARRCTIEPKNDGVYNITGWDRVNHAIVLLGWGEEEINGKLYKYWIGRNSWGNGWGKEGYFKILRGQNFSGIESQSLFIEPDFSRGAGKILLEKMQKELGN
row,SMILES,% Inhibition @ 10 uM
1,COc1cccc(/C=C/C(=O)c2ccncc2)c1,4.55%
2,CN1CCN(Cc2cccnc2)CC1,-3.65%
3,CCOc1cc(C2C3=C(CCCC3=O)OC3=C2C(=O)CCC3)ccc1OCc1ccc(C(=O)O)cc1,-2.98%
4,NC(=O)CS(=O)(=O)c1nc2ccccc2n1CC(=O)N1CCOCC1,-2.19%
5,Cc1ccc(OCCCCCN2CCNCC2)c(Cl)c1,-0.473%
6,CN(C)CC(=O)N1c2ccccc2CCc2ccc(NC(=O)c3ccc(N)cc3)cc21,-2.47%
7,O=C(O)CCC(C(=O)O)N1C(=O)c2c(Cl)c(Cl)c(Cl)c(Cl)c2C1=O (stereo not drawn),3.27%
8,Nc1ncnc2[nH]c(CO)nc12,-10.3%
9,O=C(O)C1CCN(S(=O)(=O)c2cccc3nsnc23)CC1,-3.93%
10,Cc1ccc(-c2nc3ccccc3c(=O)n2CCCn2ccnc2)cc1,0.751%
11,COc1ccc(N(CC(=O)N2CCCCC2)S(=O)(=O)c2ccc(C)cc2)cc1OC,4.49%
12,CCn1c(=O)c2sccc2n2c(CCCC(=O)NCc3ccccn3)nnc12,-6.87%
13,Clc1cccc(Cn2ncc3ccccc32)c1,3.27%
14,COc1ccc(OC)c(N(CC(=O)Nc2ccc(F)cc2)S(C)(=O)=O)c1,-6.83%
15,N#Cc1cc2c(nc1S(=O)Cc1ccc(Cl)cc1)CCCC2 (stereo not drawn),-5.63%
16,COc1ccc(Br)cc1CN1CCN(C2CCN(Cc3ccccc3)CC2)CC1,-1.6%
17,O=C(Nc1ccc2oc(-c3ccc(F)cc3)nc2c1)c1ccc(Br)o1,11.4%
18,CCC(=O)Nc1sc2c(c1C(=O)Nc1cccc3ccccc13)CCC2,-0.865%
19,OC1=C2C(=Nc3nc(O)nc(O)c3C2c2ccc(-c3cccc(C(F)(F)F)c3)o2)CCC1 (stereo not drawn),-0.0678%
20,CC1=C(C(=O)N2CCCCC2)C(c2ccc(C(F)(F)F)cc2)C2=C(O)CCCC2=N1 (stereo not drawn),1.86%
21,Cc1cccc(CSc2nc3cccnc3n2CC(=O)NCCc2ccccc2)c1,7.01%

row,SMILES,% Inhibition @ 10 uM
1,c1ccc2[nH]c(Cc3nc4ccccc4[nH]3)nc2c1,-8.12%
2,Cc1cc(C)nc(SCc2nnc(SCC(=O)NCc3ccccc3)o2)n1,2.95%
3,CC(C)C(=O)N1c2ccccc2N=C2CC(C)(C)CC(O)=C2C1c1ccc(Cl)cc1 (stereo not drawn),-3.44%
4,COc1ccc2[nH]cc(CCN3C(=O)CCC3=O)c2c1,-1.29%
5,COc1ccc(CNC(=O)Cn2nc(C)c3c(C)n(-c4ccc(C)cc4)nc3c2=O)cc1OC,-5.15%
6,Cc1ccc(C(=O)N/C(=C\c2ccco2)C(=O)N2CCSCC2)cc1C,-2.78%
7,COC(=O)c1cnc2ccc(S(=O)(=O)N3CCCC3)cc2c1O,2.5%
8,Cc1cccc(C#CCN2CCCCC2)c1,-6.87%
9,CCC1=NN2C(=N)/C(=C/c3ccc(OCCOc4ccccc4)c(OC)c3)C(=O)N=C2S1,7.73%
10,CC(=O)C1=C(C)OC(N)=C(C#N)C1c1cccc(OCc2ccccc2)c1 (stereo not drawn),-0.25%
11,COc1ccccc1NC(=O)c1cc(OC)c(C(=O)c2ccccc2)cc1OC,3.69%
12,CCOC(=O)c1c(N)n(-c2cc(C)ccc2C)c2nc3ccccc3nc12,-1.6%
13,N#Cc1cn(CC(=O)N2CCc3ccccc3C2)c2ccccc12,0.777%
14,CCOC(=O)N1CCN(C(=O)COCc2cc(-c3ccc4c(c3)OCO4)on2)CC1,-1.04%
15,COC(OC)C(CCc1ccccc1)NC(=O)C(CC(C)C)NC(=O)OCc1ccccc1 (stereo not drawn),-5.64%
16,CC(=O)Nc1ccc(C(=O)N(Cc2ccccc2)C(C(=O)Nc2ccc(C)cc2)c2ccccn2)cc1 (stereo not drawn),-5.14%
17,Cc1cc(-c2ccc([N+](=O)[O-])cc2)c(C#N)c(N)n1,-4.04%
18,C=C(C)Cn1c(CNC(=O)c2ccc(Cl)cc2)nc2ccccc21,-2.59%
19,COc1ccc(S(=O)(=O)N2CCCN(CC(=O)C(C)(C)C)CC2)cc1,-0.631%
20,Clc1ccccc1-c1nn[nH]n1,3%
21,O=C(CSc1nnc(-c2ccc(Cl)s2)o1)N1CCCCC1,-3.41%

row,SMILES,% Inhibition @ 10 uM
1,COc1cccc(/C=C2\CCC3=C2OC(N)=C(C#N)C3c2cccc(OC)c2)c1 (stereo not drawn),5.59%
2,O=C(NCc1ccccc1Cl)c1cc(O)nc2ccc(S(=O)(=O)N3CCOCC3)cc12,2.65%
3,CCc1onc2cc3c(cc12)OCCO3,2.55%
4,N#CC1=C(N)Oc2c(c(O)nc3ccccc23)C1c1cccc2ccccc12 (stereo not drawn),1.26%
5,COc1ccc(Cn2c(CCC(=O)NCc3ccc4c(c3)OCO4)nc3cccnc32)cc1,-1.3%
6,Cn1c2ccccc2c2cnn(CC(=O)NCCCN3CCN(Cc4ccccc4)CC3)c(=O)c21,2.99%
7,COc1cccc(CNS(=O)(=O)c2c(C)nc3sccn3c2=O)c1,-3.9%
8,Cc1ccc(S(=O)(=O)N2CC=C(C(=O)NC3CCC(C)CC3)CC2)cc1 (stereo not drawn),-2.14%
9,Nc1ccc2nc(SCC(=O)N3CCCCC3)sc2c1,-0.25%
10,CCCS(=O)(=O)NCCc1cc2ccc(C)c(C)c2nc1O,0.205%
11,CC1(C)CC2=NCC(=O)NC2=C(O)C1,59.8%
12,O=C(C1CCC(CNS(=O)(=O)c2cccs2)CC1)N1CCCCC1 (stereo not drawn),-3.21%
13,Cc1ccc(S(=O)(=O)c2nnn3c2nc(N(C)Cc2ccccc2)c2ccccc23)cc1,17%
14,O=C(Nc1ccccc1C(F)(F)F)c1cc2ccccc2oc1=O,0.605%
15,Cc1ccc(CNC(=O)Nc2nnc(N(CC(C)C)CC(C)C)s2)cc1,-2.85%
16,Cc1ccc(OCC(=O)Nc2ccc(S(=O)(=O)N3CCC(C)CC3)cc2)cc1,-2.28%
17,COc1ccccc1NC(=S)NC(=O)c1ccccc1,2.6%
18,O=C(CCn1nc(-c2ccc(Cl)cc2)ccc1=O)NCCCN1CCCCC1,-1.79%
19,O=S(=O)(NCc1ccccc1Cl)c1ccc2[nH]c(-c3ccccc3)nc2c1,4.07%
20,Clc1ccccc1CNc1cc(-c2ccccc2)nc2nncn12,-0.808%
21,CCCCC(=O)Nc1c2c(nn1-c1ccc(C)cc1)CS(=O)(=O)C2,-2.54%
